# Reference: the supplement of paper PMC9135407
# Where “and” joins values, the source holds several entries; their conditions need not be identical. Identical values can stand only once. Counter-ions that a name gives are not always drawn. The whole screen tested about 5,800 compounds, of which about 620 (11%) showed activity.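 The calls were made as follows: active = score above a cut-off or among the top three wells of a plate; in these data no inactive exceeds 0.85.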 This is a selection; strong and weak results do not stand in their true shares.
# System: primary human hepatic stellate cells (donor 1)
# Assay: scaled lipid accumulation score (0 = DMSO-like, 1 = nortriptyline-like); higher = stronger HSC inactivation (lipid re-accumulation), active = hit call of the paper
# Settings: 48 h
# [1] = library stock concentration: 10 mM
# [2] = library stock concentration: 3.33 mM
# [3] = library stock concentration: 400 uM
# [4] = library stock concentration: 2 mM
# [5] = library stock concentration: 1 mM
# [6] = library stock concentration: 5.3 mM
# [7] = library stock concentration: 4.7 mM
structure (smiles),measurement,setting,value
Cc1c(N(C)CS(=O)(=O)O)c(=O)n(-c2ccccc2)n1C [Dipyrone],scaled lipid accumulation score,,inactive: ≤ 0
same,scaled lipid accumulation score,library stock concentration: 6 mM,inactive: ≤ 0
same,scaled lipid accumulation score,[1],inactive: ≤ -0.001
C#CC[C@H](c1nc2cc(Cl)ccc2c(=O)n1Nc1ccccc1)N(CCCN)C(=O)c1cccc(Cl)c1F,scaled lipid accumulation score,[2],inactive: 0.132
same,scaled lipid accumulation score,[1],inactive: ≤ 0
C[C@@H]1CCN(C(=O)CC#N)C[C@@H]1N(C)c1ncnc2[nH]ccc12,scaled lipid accumulation score,[3],inactive: ≤ -0.005
same,scaled lipid accumulation score,[4],inactive: ≤ -0.005
same,scaled lipid accumulation score,[2],inactive: ≤ 0
same,scaled lipid accumulation score,[1],inactive: ≤ -0.001 and inactive: ≤ 0 and inactive: ≤ -0.005
CN(C)[C@@H]1C(O)=C(C(=O)NCN2CCCC2)C(=O)[C@@]2(O)C(O)=C3C(=O)c4c(O)cccc4[C@@](C)(O)[C@H]3C[C@@H]12 [Rolitetracycline],scaled lipid accumulation score,,inactive: ≤ 0
CN(C)[C@@H]1C(O)=C(C(=O)NCN2CCCC2)C(=O)[C@@]2(O)C(O)=C3C(=O)c4c(O)cccc4[C@@](C)(O)[C@H]3C[C@@H]12,scaled lipid accumulation score,[1],inactive: ≤ 0
CCCCCC/C=C\CCCCCCCC(=O)OCC [Palmitoleic Acid ethyl ester],scaled lipid accumulation score,[5],inactive: ≤ 0
CC(NCCC(c1ccccc1)c1ccccc1)c1ccccc1 (stereo not given) [Fendiline hydrochloride],scaled lipid accumulation score,,inactive: 0.144
same,scaled lipid accumulation score,[1],inactive: 0.431
C[C@@H]1COCCN1c1cc(C2(S(C)(=O)=O)CC2)nc(-c2cccc3[nH]ccc23)n1,scaled lipid accumulation score,library stock concentration: 80 uM,inactive: ≤ -0.016
same,scaled lipid accumulation score,[3],inactive: ≤ -0.016
same,scaled lipid accumulation score,[4],inactive: ≤ -0.016
same,scaled lipid accumulation score,[1],inactive: ≤ -0.016
O=c1[nH]c(=O)n(C2CCCO2)cc1F (stereo not given),scaled lipid accumulation score,[2],inactive: ≤ 0
same,scaled lipid accumulation score,[1],inactive: ≤ 0
O=c1[nH]c(=O)n(C2CCCO2)cc1F (stereo not given) [Ftorafur],scaled lipid accumulation score,[1],inactive: ≤ 0
Cc1cc2c(F)c(Oc3ncnn4cc(OC[C@@H](C)OC(=O)[C@H](C)N)c(C)c34)ccc2[nH]1,scaled lipid accumulation score,[2],inactive: ≤ 0
same,scaled lipid accumulation score,[1],inactive: ≤ 0
CCN(CC)CCOc1ccc(Cc2ccccc2)cc1.O=C(O)/C=C/C(=O)O [DPPE fumarate],scaled lipid accumulation score,[1],active: 0.879
COc1ccc(-c2cnc3c(-c4ccsc4)cnn3c2)cc1 [VEGF Receptor 2 Kinase Inhibitor IV],scaled lipid accumulation score,[2],inactive: ≤ 0
CCCCCCCCCCCCC(O)C(=O)O (stereo not given) [2-Hydroxymyristic acid],scaled lipid accumulation score,[5],inactive: 0.03
CCCCCCCCCCCCC(O)C(=O)O (stereo not given) [2-Hydroxymyristic Acid],scaled lipid accumulation score,[5],inactive: ≤ 0
"CCC(CO)Nc1nc(NCc2ccccc2)c2ncn(C(C)C)c2n1 [Roscovitine, (S)-Isomer]",scaled lipid accumulation score,[2],inactive: ≤ 0
Nc1nc2ccc(Cl)cc2c2nc(-c3ccco3)nn12,scaled lipid accumulation score,[1],inactive: ≤ 0 and inactive: ≤ -0.043 and inactive: ≤ -0.006
COc1cc2c(cc1C(F)(F)F)N(C(=O)Nc1cc(F)cc(-c3cccnc3)c1)CC2,scaled lipid accumulation score,[1],inactive: 0.676
CCC(C)N(C)C(=O)c1cc2ccccc2c(-c2ccccc2Cl)n1 (stereo not given),scaled lipid accumulation score,[1],inactive: 0.007 and inactive: ≤ 0
CCCCC/C=C\C[C@@H](O)/C=C/C=C/C=C\[C@@H](O)CCCC(=O)O [Leukotriene B4],scaled lipid accumulation score,library stock concentration: 100 uM,inactive: ≤ -0.021
O=C(NCc1cccc(O)c1)Nc1nc(-c2ccncc2)cs1,scaled lipid accumulation score,[1],active: 1.02
O=S(=O)(O)NC1CCCCC1,scaled lipid accumulation score,[1],inactive: 0.083
O=S(=O)(O)NC1CCCCC1 [Cyclamic  acid],scaled lipid accumulation score,[2],inactive: ≤ 0
same,scaled lipid accumulation score,[1],inactive: 0.079
CC[C@]12CCCN3CCc4c(n(c5ccccc45)[C@](O)(C(=O)OC)C1)[C@@H]32 [Epivincamine],scaled lipid accumulation score,,inactive: ≤ 0
CCc1cn([C@H]2C[C@H](O)[C@@H](CO)O2)c(=O)[nH]c1=O [Edoxudine],scaled lipid accumulation score,library stock concentration: 7.8 mM,inactive: ≤ 0
same,scaled lipid accumulation score,[1],inactive: 0.436
CC(C)NC[C@@H](O)COc1cccc2ccccc12 [Dexpropranolol hydrochloride],scaled lipid accumulation score,library stock concentration: 6.8 mM,inactive: 0.521
same,scaled lipid accumulation score,[1],inactive: ≤ 0
CC(C)NC[C@@H](O)COc1cccc2ccccc12 [(R)-Propranolol hydrochloride],scaled lipid accumulation score,,inactive: 0.415
CC(C)NC[C@@H](O)COc1cccc2ccccc12 [(R)-(+)-Propranolol hydrochloride],scaled lipid accumulation score,[1],inactive: 0.656
OC1(c2ccc(Cl)cc2)CCN(Cc2c[nH]c3ccccc23)CC1,scaled lipid accumulation score,[1],active: 1.17
CCN(CC)CCc1nc(-c2ccccc2)no1 [Oxalamine citrate salt],scaled lipid accumulation score,,inactive: ≤ 0
CCN(CC)CCc1nc(-c2ccccc2)no1,scaled lipid accumulation score,[1],inactive: ≤ 0
CNCC(O)c1ccc(OC(=O)C(C)(C)C)c(OC(=O)C(C)(C)C)c1 (stereo not given) [Dipivefrin hydrochloride],scaled lipid accumulation score,,inactive: ≤ 0
CCOc1c2c(c(OCC)c3ccccc13)C(=O)N(c1ccc(CC(=O)NS(=O)(=O)c3ccccc3)cc1)C2,scaled lipid accumulation score,[5],inactive: ≤ 0
COc1ccc([C@]2(C#N)CC[C@@H](C(=O)O)CC2)cc1OC1CCCC1 [Cilomilast],scaled lipid accumulation score,[2],inactive: ≤ 0
same,scaled lipid accumulation score,[1],inactive: ≤ 0
"CC(C)NCC(O)c1ccc(O)c(O)c1 (single isomer, unassigned; (+)) [(+)-Isoproterenol (+)-bitartrate salt]",scaled lipid accumulation score,,inactive: ≤ 0
O=C(NCCO)c1cccc(-c2cc(Nc3ccc(OC(F)(F)F)cc3)ncn2)c1,scaled lipid accumulation score,[2],inactive: ≤ -0.009
same,scaled lipid accumulation score,[1],inactive: 0.83
COCC[n+]1c2c(n(Cc3cnccn3)c1C)C(=O)c1ccccc1C2=O [YM155 (Sepantronium Bromide)],scaled lipid accumulation score,[2],inactive: 0.529
same,scaled lipid accumulation score,[1],inactive: 0.748
Nc1ncnc2c1c(-c1ccc(Oc3ccccc3)cc1)cn2C1CCCC1,scaled lipid accumulation score,[1],inactive: ≤ -0.07
COCCCCCCCCCCCC(=O)O [12-Methoxydodecanoic acid],scaled lipid accumulation score,[5],inactive: ≤ -0.021
C[C@H]1C[C@@H]2[C@H]([C@@H](O)C[C@@]3(C)[C@H]2CC[C@]3(O)C(=O)CO)[C@@]2(C)C=CC(=O)C=C12 [Methylprednisolone],scaled lipid accumulation score,[2],inactive: ≤ 0
same,scaled lipid accumulation score,[6],inactive: 0.003 and inactive: ≤ -0.001
same,scaled lipid accumulation score,[1],inactive: ≤ 0
"C[C@H]1C[C@@H]2[C@H]([C@@H](O)C[C@@]3(C)[C@H]2CC[C@]3(O)C(=O)CO)[C@@]2(C)C=CC(=O)C=C12 [Methylprednisolone, 6-alpha]",scaled lipid accumulation score,,inactive: ≤ 0
C[C@H]1C[C@@H]2[C@H]([C@@H](O)C[C@@]3(C)[C@H]2CC[C@]3(O)C(=O)CO)[C@@]2(C)C=CC(=O)C=C12,scaled lipid accumulation score,[1],inactive: ≤ 0
CCCNCC(O)COc1ccccc1C(=O)CCc1ccccc1 (stereo not given) [Propafenone hydrochloride],scaled lipid accumulation score,,inactive: 0.742
same,scaled lipid accumulation score,[6],inactive: 0.429
same,scaled lipid accumulation score,[1],inactive: 0.365
CCCNCC(O)COc1ccccc1C(=O)CCc1ccccc1 (stereo not given) [Propafenone],scaled lipid accumulation score,library stock concentration: 5.9 mM,inactive: 0.566
CCCNCC(O)COc1ccccc1C(=O)CCc1ccccc1 (stereo not given) [Propafenone HCl],scaled lipid accumulation score,[2],inactive: 0.241
same,scaled lipid accumulation score,[1],inactive: 0.684
CCCNCC(O)COc1ccccc1C(=O)CCc1ccccc1 (stereo not given) [Rythmol],scaled lipid accumulation score,[1],inactive: 0.811
O=C1c2ccc(Nc3ccc(F)cc3F)cc2CCc2ccc(OC[C@H](O)CO)cc21 [Skepinone-L],scaled lipid accumulation score,[2],inactive: 0.058
same,scaled lipid accumulation score,[1],inactive: 0.357
CCCCCCCCCCCCCCCCCC(=O)OC(CC(=O)O)C[N+](C)(C)C (racemic) [DL-Stearoylcarnitine chloride],scaled lipid accumulation score,[1],inactive: 0.037
O=[N+]([O-])c1cccc2cn[nH]c12,scaled lipid accumulation score,[1],inactive: ≤ 0
O=[N+]([O-])c1cccc2cn[nH]c12 [7-Nitroindazole],scaled lipid accumulation score,[1],inactive: ≤ -0.055 and inactive: ≤ 0
COc1ccccc1OCC(O)CN1CCN(CC(=O)Nc2c(C)cccc2C)CC1 (stereo not given) [Ranolazine],scaled lipid accumulation score,,inactive: ≤ 0
same,scaled lipid accumulation score,[2],inactive: ≤ 0
same,scaled lipid accumulation score,[7],inactive: ≤ 0
same,scaled lipid accumulation score,[1],inactive: ≤ 0 and inactive: ≤ -0.027
COc1ccccc1OCC(O)CN1CCN(CC(=O)Nc2c(C)cccc2C)CC1 (stereo not given) [Ranolazine dihydrochloride],scaled lipid accumulation score,[1],inactive: ≤ 0
COc1ccccc1OCC(O)CN1CCN(CC(=O)Nc2c(C)cccc2C)CC1 (stereo not given) [Ranolazine 2HCl],scaled lipid accumulation score,[2],inactive: ≤ 0
same,scaled lipid accumulation score,[7],inactive: ≤ 0
same,scaled lipid accumulation score,[1],inactive: ≤ 0
COc1cc(/C=C(\C#N)C(=O)Nc2nnc(C(F)(F)F)s2)ccc1OCc1ccc(C(F)(F)F)cc1C(F)(F)F,scaled lipid accumulation score,[1],inactive: ≤ 0
COc1cc([C@@H]2c3cc4c(cc3[C@@H](O[C@@H]3O[C@@H]5CO[C@@H](C)O[C@H]5[C@H](O)[C@H]3O)[C@H]3COC(=O)[C@H]23)OCO4)cc(OC)c1O [Etoposide],scaled lipid accumulation score,,inactive: ≤ 0
same,scaled lipid accumulation score,[2],inactive: ≤ 0
same,scaled lipid accumulation score,[1],inactive: ≤ 0 and inactive: 0.026 and inactive: ≤ -0.006
"O=P(O)(O)O[C@H]1[C@H](O)[C@@H](O)[C@H](OP(=O)(O)O)[C@@H](OP(=O)(O)O)[C@H]1O [D-myo-Inositol-1,3,4-triphosphate (sodium salt)]",scaled lipid accumulation score,[5],inactive: ≤ 0
CCCCCCCC/C=C\CCCCCC(=O)OC [cis-7-Hexadecenoic Acid methyl ester],scaled lipid accumulation score,[5],inactive: ≤ 0
CC(=O)Oc1ccc2c(c1)CCC1C2CC[C@]2(C)C(=O)CCC12 (stereo not given in full) [Estrone acetate],scaled lipid accumulation score,[1],inactive: ≤ 0
Nc1nc2n[nH]nc2c(=O)[nH]1 [Azaguanine-8],scaled lipid accumulation score,,inactive: 0.305
same,scaled lipid accumulation score,[2],inactive: ≤ 0
same,scaled lipid accumulation score,[1],inactive: 0.419
Nc1nc2c(nc(Br)n2C2OC3COP(=O)(O)O[C@@H]3C2O)c(=O)[nH]1 (stereo not given in full) [8-Bromo-cGMP sodium],scaled lipid accumulation score,[1],inactive: ≤ 0
"CCCCCC(O)CCC1C(O)CC(=O)C1CCCCCCC(=O)O (stereo not given) [13,14-dihydro Prostaglandin E1]",scaled lipid accumulation score,[5],inactive: ≤ 0
"CCCCCC(O)CCC1C(O)CC(=O)C1CCCCCCC(=O)O [13,14-dihydro-15(R)-Prostaglandin E1]",scaled lipid accumulation score,[5],inactive: ≤ 0
